Read counts are not given, so values of variants with three or more changes are uncertain.

In the RNAGym collection of RNA variant scans (doi:10.7554/elife.90254) one finds self-cleavage data, which are given here for 167 variants.

B1: LINE1-mini (parent)
chain: GGCAGAGCUCAACACAGCGUGGCAAAGUGGCUGUGGCUAGACUGCC

Variants of B1 are the subject of this data set. In words: self-cleavage, relative activity (ratio to wild type); higher = more cleavage; in vitro, sequencing; the parent is a self-cleaving ribozyme.
Consider A4U A6G G22U U28A, for which the self-cleavage amounted to 0.25.

In the case of A4G C13G A14G, the self-cleavage was 0.06.

For A4U C10A G22A C23G G27U U32G, the self-cleavage was found to be 0.03.

Consider A4U C10A C42U U43A, for which the self-cleavage was 0.

As to A4U A25G G29A U34A A39C, the self-cleavage amounted to 0.2.

As to A4U C8G G22C A25G, the self-cleavage came out at 0.05.

A4U A14C G30U: the self-cleavage came to 0.1.

On to A4G A12G G22A, for which the self-cleavage was found to be 0.02.

With A4G G21A C37A, the self-cleavage amounted to 2.37.

A4G A11U C18A C23G A24U: the self-cleavage came out at 0.02.

Turning to A4U C8A G22C, the self-cleavage was determined as 0.08.

Regarding A4C U28A U34A, the self-cleavage stood at 0.06.

Turning to A4C G27A C42G, the self-cleavage is 0.09.

Regarding A4G C8A C42G, the self-cleavage is 0.2.

For the variant A4U A24U A26C, the self-cleavage was found to be 0.16.

For A4U C15A U34A, the self-cleavage came out at 0.08.

Turning to A4G G22A A24U, the self-cleavage is 0.46.

As for A4G U20C U34G, the self-cleavage worked out at 0.06.

For A4G C10A G17C G19A A41C, the self-cleavage came to 0.03.

Take A4U A12G C23G: the self-cleavage amounted to 0.01.

As for A4U C8G U20G G35C C45A, the self-cleavage amounted to 0.02.

On to A4G A26G U38C, for which the self-cleavage came to 0.08.

Regarding A4U A14U G17A C18U U34C G36U, the self-cleavage came out at 0.02.

In the case of A4U A11U A16G A26C, the self-cleavage worked out at 0.03.

A4U A6C C13U U28G U32G: the self-cleavage was found to be 0.02.

Turning to A4G A14C G19A C42G G44C, the self-cleavage was found to be 0.02.

In the case of A4G G21C G29U G44C C45U, the self-cleavage worked out at 0.01.

Turning to A4U A14U G21U, the self-cleavage stood at 0.18.

Take A4G G21U A26U: the self-cleavage was 0.35.

For A4G U32G G33A, the self-cleavage stood at 0.08.

For A4G G7U G35U G36C, the self-cleavage stood at 0.05.

For the variant A4G G19A C23G, the self-cleavage is 0.51.

A4C U20A G27C U34G: the self-cleavage was 0.02.

With A4G A16G G19C G21A A25C G33C A41C G44A, the self-cleavage amounted to 0.

With A4U C8A G22U G27A U34G C46G, the self-cleavage is 0.02.

Consider A4G A11C C31U, for which the self-cleavage was 0.03.

For A4G G5U A16U U43A C45A, the self-cleavage was determined as 0.

Take A4G C8U G22A G30U C31G: the self-cleavage stood at 0.15.

With A4G G7U A14C G17A C23U, the self-cleavage worked out at 0.15.

Regarding A4G C42G C45A, the self-cleavage amounted to 0.01.

In the case of A4G A6G G30U, the self-cleavage turned out to be 0.08.

For the variant A4C G30C C31A G35U G40A, the self-cleavage worked out at 0.23.

As for A4U A11U G22A A25C, the self-cleavage was found to be 0.02.

On to A4U C10A G19C, for which the self-cleavage was 0.02.

Consider A4G A14U G19C U20A, for which the self-cleavage amounted to 0.02.

For A4G C15G U20C, the self-cleavage came out at 0.1.

For the variant A4U A26G U28C G36A C46U, the self-cleavage was 0.05.

Take A4U A11U C23U G44U: the self-cleavage stood at 0.01.

In the case of A4U C13U U34G, the self-cleavage worked out at 0.02.

For the variant A4G G5A G17C G36U G44C, the self-cleavage was 0.05.

Consider A4G A11G G17A, for which the self-cleavage was 0.03.

Turning to A4G C31G A39U, the self-cleavage worked out at 0.01.

Consider A4G A12C C18U G35A C46A, for which the self-cleavage was determined as 0.12.

As to A4U A14G G17A A39U C45A, the self-cleavage was found to be 0.01.

Turning to A4U C10G A12U A26U G30C C37U, the self-cleavage was 0.02.

Regarding A4U C15U G17A U32C, the self-cleavage was determined as 0.08.

With A4U C10A A14C A25C C42A, the self-cleavage stood at 0.01.

With A4G C8A G22C G36A C37A C46A, the self-cleavage was 0.17.

For A4U A24G C45A, the self-cleavage stood at 0.1.

On to A4G C10U A11U G29A, for which the self-cleavage amounted to 0.05.

Regarding A4G C10A A16C G44U, the self-cleavage came out at 0.01.

On to A4G C18A G29A G36A, for which the self-cleavage amounted to 0.15.

For the variant A4G G22U G27U C37U, the self-cleavage stood at 0.04.

As for A4G C8G C13A C15A G19U G33A, the self-cleavage amounted to 0.03.

A4G G29A A39U: the self-cleavage amounted to 1.13.

Regarding A4G C8U C13U G33U C42A C45G, the self-cleavage came to 0.32.

With A4G A6G C31U G40A, the self-cleavage came out at 0.04.

As to A4G A12U C45U, the self-cleavage was 0.04.

As to A4G A6U G19A, the self-cleavage stood at 0.14.

A4U C13A U20A: the self-cleavage is 0.03.

Turning to A4G A26C U28G, the self-cleavage is 0.59.

For the variant A4G G5C G17A, the self-cleavage was determined as 0.04.

Regarding A4C U20A C31U, the self-cleavage turned out to be 0.01.

For the variant A4U C10A G22U C46U, the self-cleavage amounted to 0.03.

As to A4G A12C C42G, the self-cleavage was found to be 0.01.

For A4C U9C C10A C37A, the self-cleavage came out at 0.09.

As to A4U A6C U9C G33U A39U G40U, the self-cleavage worked out at 0.03.

On to A4G C10U A26U, for which the self-cleavage is 0.23.

Turning to A4G C45A C46G, the self-cleavage came out at 0.17.

With A4G A11C C37U, the self-cleavage stood at 0.01.

For the variant A4G G5U G21U U43C, the self-cleavage was found to be 0.11.

For A4G C10A G22U, the self-cleavage turned out to be 0.12.

Regarding A4G A14C A25U G29C, the self-cleavage was 0.01.

Turning to A4G A11G G27A G29C U34A U38A, the self-cleavage was determined as 0.

For A4G C8U C10A C15U A24U G33A, the self-cleavage worked out at 0.02.

Take A4G A6G U9G C37A U43G: the self-cleavage is 0.06.

For A4C G29U U34C A39C A41G, the self-cleavage came out at 0.5.

As to A4U C13A A41C, the self-cleavage turned out to be 0.02.

With A4G C15G G21C, the self-cleavage worked out at 0.01.

With A4U A11C G36C, the self-cleavage stood at 0.02.

In the case of A4U A16C C23G U38G C45U, the self-cleavage is 0.01.

For A4G A6U G21A, the self-cleavage stood at 0.1.

Regarding A4G C8U A26G G35U, the self-cleavage amounted to 0.45.

Consider A4C G30U C46G, for which the self-cleavage was 0.04.

For the variant A4G G7C C8U C42A, the self-cleavage is 0.29.

A4G A16C G17A G21U G33A C37G U43A C46U: the self-cleavage came out at 0.01.

For the variant A4U A26G C37A G40U, the self-cleavage stood at 0.12.

As to A4G A6U C8G U20C G21A, the self-cleavage was determined as 0.03.

On to A4G G17U G30U C45G, for which the self-cleavage is 0.03.

With A4G A16C C31A, the self-cleavage worked out at 0.03.

For A4G C31U G35A U38G, the self-cleavage was 0.02.

As to A4G A6U G29A, the self-cleavage came to 2.49.

For A4G C13A G40U U43A, the self-cleavage stood at 0.01.

Consider A4U A6C C23U U28G G35U, for which the self-cleavage is 0.08.

Take A4C U34C G44A: the self-cleavage worked out at 0.13.

As for A4G C18A G30C C31U, the self-cleavage amounted to 0.05.

On to A4G A6U A24U A25U G35A A39G, for which the self-cleavage was 0.07.

For the variant A4U C15G C23A G33A, the self-cleavage was 0.01.

On to A4G C8G U28A, for which the self-cleavage stood at 0.

For A4C G29U G36U, the self-cleavage was 0.81.

As to A4C G29U G36C, the self-cleavage is 1.53.

On to A4U C13G G19A G22U G27C G33A, for which the self-cleavage stood at 0.59.

For the variant A4G A12U C46U, the self-cleavage was determined as 0.11.

In the case of A4U A14G G21U U34G C37A U43C, the self-cleavage came to 0.04.

With A4G C18U G19A G35A G44U, the self-cleavage turned out to be 0.02.

As for A4G A12C A14C G21U G22A U34C, the self-cleavage turned out to be 0.06.

Consider A4G C8U A11C C15G G35A A41C, for which the self-cleavage is 0.01.

For the variant A4C G22C G27U G33U C42U C45A, the self-cleavage stood at 0.15.

On to A4G G29U U38G C42G, for which the self-cleavage is 0.44.

On to A4G G7U G27U, for which the self-cleavage is 0.42.

As for A4G U32C G35A U38G A41U, the self-cleavage was determined as 0.03.

Take A4C U20G U32C U38C: the self-cleavage is 0.

With A4C G35C U43C, the self-cleavage came out at 0.35.

As for A4G A6U G35A G36U, the self-cleavage worked out at 0.24.

On to A4G C18U G36C G44U, for which the self-cleavage came out at 0.02.

Consider A4G G19C U28C U34G C45G, for which the self-cleavage is 0.02.

As to A4G C18G U20A A26C, the self-cleavage came out at 1.77.

Take A4U C8A U28C: the self-cleavage came out at 0.31.

Regarding A4G G7C U32A C42U, the self-cleavage was determined as 0.04.

On to A4G U9G G22U G33U, for which the self-cleavage amounted to 0.26.

In the case of A4U A14U A16G G22A G33U, the self-cleavage came out at 0.09.

With A4G G21U G27A, the self-cleavage is 0.15.

A4G G7A C23A A24G: the self-cleavage was 0.23.

Turning to A4G C18G A41C, the self-cleavage was 0.13.

Consider A4U A6U U28A, for which the self-cleavage was determined as 0.11.

Regarding A4G G21C C23U, the self-cleavage is 0.63.

For A4G C15G G30U, the self-cleavage stood at 0.02.

A4G G21U U43A: the self-cleavage was determined as 0.25.

As for A4C U34G C37U, the self-cleavage was found to be 0.02.

Take A4C U9C C13A C37G: the self-cleavage is 0.03.

In the case of A4G G21A G44U, the self-cleavage was 0.07.

Take A4G G5U C31U: the self-cleavage came out at 0.03.

Take A4G C8A A16C C23A: the self-cleavage was 0.75.

On to A4U C13A U38C, for which the self-cleavage is 0.02.

For A4C G22C U38G, the self-cleavage is 0.01.

As for A4U A6C U9C A11G U20A G27A C37A U43A, the self-cleavage worked out at 0.01.

On to A4G U38A A39G, for which the self-cleavage is 0.33.

A4G G30C G33U: the self-cleavage worked out at 0.03.

A4G C13A G22C: the self-cleavage came to 0.05.

For A4G G7C U9C G21U U43G, the self-cleavage was determined as 0.02.

As to A4U C8G G30U C31A U32A, the self-cleavage turned out to be 0.03.

For A4U A14U C15A, the self-cleavage was 0.06.

Take A4G U9C A24C C31G: the self-cleavage was determined as 0.01.

Turning to A4G C18G G30U, the self-cleavage came to 0.48.

Turning to A4U C15U G35A G40A, the self-cleavage came to 0.02.

A4U C10A A11G A24U U28C U32A G33U G40C: the self-cleavage worked out at 0.02.

With A4G A6G C8A U20A U34G G36C C45G, the self-cleavage amounted to 0.11.

As for A4G G19C G35U, the self-cleavage is 0.06.

A4U C13U C46A: the self-cleavage came out at 0.06.

Consider A4G G17C G27A G29C G30A, for which the self-cleavage was determined as 0.19.

In the case of A4C G29A C31A G36C C42U, the self-cleavage was 0.04.

For A4G A26G G27U C31U G36U C46G, the self-cleavage was 0.02.

Take A4G C37A U43A G44U: the self-cleavage amounted to 0.05.

Take A4G C8A C23U C45A: the self-cleavage was determined as 0.92.

On to A4U A11U G17U U20C C37A G44U, for which the self-cleavage is 0.02.

A4G G22C A39U: the self-cleavage came to 0.13.

As for A4U C13U G35A, the self-cleavage was determined as 0.27.
